Assay results: PubChem BioAssay (NCI)
Values joined by “and” are separate entries in the source; they are usually repeats but may differ in a detail not shown here. Identical values can stand only once.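 Briefly, cells in 96-well plates were exposed to five compound concentrations for 48 h, and endpoints were estimated by linear interpolation. GI50 marks 50% less growth. TGI marks complete inhibition of growth.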

Tested on: NCI-H322M lung
Experiment: NCI anticancer screen, dose series, 48 h

| Compound | GI50 | TGI |
| --- | --- | --- |
| CN(C)CCNC(=O)c1cc2c3cc(Cl)ccc3[nH]c2c2ncccc12 | 4.74 µM | 20.6 µM |
| CC[C@@]1(OP(=O)(O)O)C(=O)OCc2c1cc1n(c2=O)Cc2cc3ccccc3nc2-1 | 1.29 µM | 5.56 µM and 4.97 µM |
| Fc1ccc(Nc2nc(Cl)c3[nH]cnc3n2)cc1Cl |  | > 100 µM |
| CCC(=C(c1ccc(OCCN2CCCCC2)cc1)c1ccc(OCCN2CCCCC2)cc1)c1ccc(Cl)cc1 | 13.4 µM | > 16.7 µM |
| Cc1ccc(N)c(S)c1 |  | 52.6 µM |
| O=C(O)/C=C\C(=O)Nc1ccc2c(c1)-c1ccccc1C2 |  | > 100 µM |
| N/N=c1/nc2n(c3ncccc13)C=CNN2 |  | > 100 µM |
| N=c1sc2ccccc2n1CCS (tested in a mixture with another compound) |  | 41.9 µM |
| COC(=O)C(=O)C(C(=O)C(=O)Nc1ccc(Cl)c(Cl)c1)c1nc2ccc(C(=O)c3ccccc3)cc2[nH]c1=O (stereo not drawn) |  | > 100 µM |
| COC(=O)c1c(O)c(C#N)c2[nH]c3ccccc3n2c1=O |  | > 100 µM |
| O=C1c2ccccc2-c2nnc3c(c21)Cc1ccccc1C3 |  | > 10 µM |
| NC(N)=N/N=C/c1c(-c2ccccc2[N+](=O)[O-])nc2sccn12 |  | > 100 µM |
| CCOC(=O)CC1=N/C(=N/C(=N)N[N+](=O)[O-])SC1 |  | > 100 µM |
| NCCCCCC(CCN)SCC1OC(n2cnc3c(N)ncnc32)C(O)C1O (stereo not drawn) |  | > 1500 µM |
| COc1cc2nc(-c3cccs3)nc(Nc3cccc([N+](=O)[O-])c3)c2cc1OC |  | 41.6 µM |
| COc1cccc(OC)c1C1ON=C(c2ccccc2)N1C12CC3CC(CC(C3)C1)C2 (stereo not drawn) |  | > 100 µM |
| Cc1ccc(NC(=O)c2ccc(CN3CCN(C)CC3)cc2)cc1Nc1nc(-c2cccnc2)cs1 | 14.6 µM and > 10 µM | 29.3 µM and > 10 µM |
| O=C(O)CN1CCSc2ccccc2CN(CC(=O)O)CCSc2ccccc2C1 |  | > 100 µM |
| NC(N)=N/N=C\c1c(-c2cccc([N+](=O)[O-])c2)nc2sccn12 |  | 17.8 µM |
| CCCN(CCC)C(=S)Sc1nc(C)nc(N2CCN(c3nc(C)nc(SC(=S)N(CCC)CCC)c3[N+](=O)[O-])CC2)c1[N+](=O)[O-] |  | > 95.6 µM |
| O=C1CSCC(=O)Nc2ccccc2N1 |  | > 100 µM |
| O=S(=O)(NCCCNc1cc(-c2cn(-c3ccccc3)nc2-c2cccc(O)c2)ccn1)c1ccc(C(F)(F)F)cc1 | 2.94 µM | 9.23 µM |
| Cc1c(Cl)cccc1C(=O)Nc1nc2c(s1)CN(C(=O)Nc1cccc(C(F)(F)F)c1)CC2 | 0.315 µM | > 50 µM |
| CC(C#N)(c1ccccc1)N(CCc1ccccc1)C(=O)Oc1ccccc1 (stereo not drawn) |  | > 100 µM |

| Compound | GI50 | TGI |
| --- | --- | --- |
| CNC(=O)Oc1cc(C(C)C)ccc1Sc1ccc(C(C)C)cc1OC(=O)NC | 11.7 µM | 25 µM |
| CCN1CCN(CCC(=O)Nc2cccc(-n3cc(-c4ccncc4)c(-c4ccc(Cl)c(OC)c4)n3)c2)CC1 | 0.855 µM | 4.37 µM |
| CC(=O)/C(=C\c1ccc(Cl)cc1)c1ccccc1 | 0.409 µM | > 100 µM |
| O=C1C2C3C4C1C1C2[C@H](OCc2ccccc2)C3C1[C@H]4OCc1ccccc1 (stereo partly drawn) |  | > 100 µM |
| CN1C(=O)C(c2c[nH]c3ccccc23)=C(c2c[nH]c3ccccc23)C1=O | 9.14 µM | > 25 µM |
| COc1ccc2c(c1)/C(=C/c1c(O)[nH]c(=S)[nH]c1=O)C=N2 |  | > 100 µM |
| Clc1ccc(OCC2NC3CCC2CC3)cn1 (stereo not drawn) |  | > 100 µM |
| N#CC(C(=O)CCCC(=O)Nc1ccccc1[N+](=O)[O-])c1c(Cl)cccc1Cl (stereo not drawn) |  | > 100 µM |
| C=CC(=O)NCCC(=O)OCn1cc(F)c(=O)[nH]c1=O |  | > 100 µM |
| Cn1cc(C2=C(c3ccsc3)C(=O)NC2=O)c2ccccc21 | > 25 µM | > 25 µM |
| CC(=O)OCC1C(=O)OCC1C(=O)N1Cc2cc3ccccc3nc2C1 (stereo not drawn) |  | 30.4 µM |
| CSC(=S)CC(O)[C@@H]1CC2c3ccccc3C1c1ccccc12 (stereo partly drawn) |  | 30.7 µM |
| CC1(C)N=C(N)N=C(N)N1c1ccc(OCCCNC(=O)Nc2ccc(S(=O)(=O)F)cc2)c(Cl)c1 | 1.87 µM | > 100 µM |
| O=C(CCCc1ccc(N(CCCl)CCCl)cc1)NCc1ccccc1 | 29.9 µM | > 100 µM |
| CC1CCCCCC(=O)c2c(O)cc(O)cc2CC(=O)O1 (stereo not drawn) |  | > 100 µM |
| COc1ccc(N2C(=O)c3cc([N+](=O)[O-])cnc3S2(=O)=O)cc1 |  | > 100 µM |
| NC(Cc1ccc(CP(=O)(O)O)cc1)C(=O)O (stereo not drawn) |  | > 100 µM |
| O=C1Cc2c(-c3cccs3)cc(-c3ccccc3)nc2-c2ccccc2N1 |  | > 100 µM |
| O=C1NC(=O)C(c2c[nH]c3ccccc23)=C1c1c[nH]c2ccccc12 | > 20.8 µM | > 25 µM |
| Clc1ccc(/C=C/c2nc(-c3ccccc3)cn3c2nc2ccccc23)cc1Cl |  | > 100 µM |
| COc1cc2nc3n(c2cc1OC)C(O)c1c(Cl)nc(SC)nc1S3 (stereo not drawn) |  | 32.4 µM |
| O=C1c2ccccc2C(=O)N1/N=C1/SC(=Nc2ccccc2)C(=Nc2ccccc2)N1c1ccccc1 |  | > 100 µM |
| CN1CCN(Cn2nc(COc3ccccc3Cl)n(/N=C/c3ccc(-c4ccc(Cl)cc4Cl)o3)c2=S)CC1 |  | > 100 µM |
| Cc1c(C(Cc2ccccc2N(C)C(=O)/C=C\C(=O)O)c2c[nH]c3ccccc23)c2ccccc2n1C (stereo not drawn) |  | 30 µM |

| Compound | GI50 | TGI |
| --- | --- | --- |
| C[N+]1(C)C2CC(OC(=O)C(CO)c3ccccc3)CC1C1OC12 (stereo not drawn) |  | > 100 µM |
| COc1ccc(C2COc3c(ccc(OC)c3OC)C2=O)cc1OC (stereo not drawn) |  | > 100 µM |
| CC(C)=CCc1cc2c(cc1O)C1=C(C(=O)C3=C(NCCS3(=O)=O)C1=O)C(C=C(C)C)O2 (stereo not drawn) | 4.45 µM | 14.9 µM |
| CC(=O)OCC1OC(n2c3c(c(-c4ccc(C)cc4)c(C#N)c2=S)C(=O)CC(C)(C)C3)C(OC(C)=O)C(OC(C)=O)C1OC(C)=O (stereo not drawn) |  | > 100 µM |
| O=C1C(Cl)C(c2cccc([N+](=O)[O-])c2)N1n1cnc2ccccc2c1=O (stereo not drawn) |  | > 100 µM |
| CC(=O)OCC1OC(N2C(=O)[C@@H](Oc3ccccc3)[C@H]2/C=C/c2ccccc2)C(OC(C)=O)C(OC(C)=O)C1OC(C)=O (stereo partly drawn) |  | > 100 µM |
| COc1ccc2c(c1)[C@@H](NC(C)=O)CCc1cc(OC)c(OC)c(OC)c1-2 |  | 20.4 µM |
| N#CCCNc1nonc1-c1nc2ccccc2n1CC(=O)c1ccc(N)cc1 | > 100 µM | > 100 µM |
| COC(=O)c1c2c(c(C)[n+]([O-])c1C)C(=O)C(NCc1ccc(OC)cc1)=CC2=O | 2.05 µM | 6.29 µM |
| O=C(N/N=C/c1ccc(Cl)cc1)c1ccc(NC(=O)c2ccccn2)cc1 | 26.3 µM | > 100 µM |
| CC(C)(C)[Si](C)(C)OCC1OC(n2cnc3c(N)ncnc32)C2OC(=S)OC12 (stereo not drawn) |  | > 100 µM |
| CC(C)=CCC/C(C)=C/CC/C(C)=C/CSC[C@H](NC(=O)CCCCCN1CCN(C)CC1)C(=O)NC1CCCCCC1 | 2.88 µM | 10.1 µM |
| O=C(/C=C\c1ccc(O)c(O)c1)c1ccccc1O | 16.4 µM | 65.1 µM |
| O=C(CCC(=O)c1ccsc1)c1ccsc1 |  | > 100 µM |
| O=C1C=C(Nc2ccccc2)c2ccccc2C1=O | 2.84 µM | 9.06 µM |
| COc1cc(/C=C2\CC3C4CC=C5CC(OC(C)=O)CC[C@]5(C)C4CC[C@]3(C)C2=O)ccc1OCCN1CCCC1 (stereo partly drawn) | 3.13 µM | 18.9 µM |
| CCN(CC)CC(=O)NC1c2ccccc2Oc2ccccc21 |  | > 100 µM |
| O=C(CC(NC(=O)OCc1ccccc1)C(=O)NC1Cc2ccccc2C1=O)OCc1ccccc1 (stereo not drawn) |  | > 100 µM |
| CC(C)(CN1CCCCC1)C(=O)/C=C/c1ccccc1 |  | 23 µM |
| Brc1ccc(C2=NCSC(c3ccc(Br)cc3)=N2)cc1 |  | 92.4 µM |
| CN(C)CC1CC/C(=C\c2ccc(Cl)c(Cl)c2)C1=O (stereo not drawn) |  | > 100 µM |
| O=C1CSC(c2c[nH]c3ccccc23)N1c1cccc(Cl)c1 (stereo not drawn) |  | > 100 µM |
| C/C=C1/CC(C(=O)OC)N(C(=O)OCc2ccccc2)C1=S (stereo not drawn) |  | > 100 µM |
| N#CC1=C(N)Oc2c(sc3c(Br)cccc23)C1c1ccc([N+](=O)[O-])cc1 (stereo not drawn) | 2.51 µM | 19 µM |

| Compound | GI50 | TGI |
| --- | --- | --- |
| COc1cc2cc(NCc3cccc(Cl)c3)nc(C)c2cc1OC | 1.42 µM | 29.8 µM |
| CC1=C(O)C(=O)C=C2C1=CC=C1[C@@]2(C)CC[C@@]2(C)C3C[C@@H](C)C(=O)[C@@H](O)[C@]3(C)CC[C@]12C (stereo partly drawn) |  | 27.1 µM |
| C=C(CO)C(=O)OC1CC(=C)C2CC(O)C(C)C2C2OC(=O)C(=C)C12 (stereo not drawn) |  | > 100 µM |
| Cn1ncnc1[C@@H]1c2n[nH]c(=O)c3cc(F)cc(c23)N[C@H]1c1ccc(F)cc1 | > 100 µM | > 100 µM |
| COc1cccc2c1C(=O)c1c(O)c3c(c(O)c1C2=O)C[C@@](O)(C(=O)CO)CC3OC1CC(N(C)CCOCC(OC(C)=O)OC(C)=O)C(O)C(C)O1 (stereo partly drawn) |  | > 0.01 µM |
| NC(N)NCCCc1cn2c(n1)C1CCCN1C(=O)C2Cc1ccccc1 (stereo not drawn) |  | > 100 µM |
| COC(=O)C(=O)C(C#N)c1nc2ccccc2s1 (stereo not drawn) |  | > 100 µM |
| CCOC(=O)c1nc2ccccc2nc1Oc1cc(OC)cc(OC)c1 |  | > 100 µM |
| O=C1C=CC2(C=C1)O[C@H](COCc1ccccc1)[C@@H](COCc1ccccc1)O2 |  | 31.5 µM |
| COc1cc2c(cc1OS(C)(=O)=O)N=C[C@@H]1CCCN1C2=O |  | > 100 µM |
| CS(=O)(=O)OCCN(CCOS(C)(=O)=O)c1ccc(C=Nc2ccc(-c3csc(COc4ccccc4)n3)cc2)cc1 |  | 26.2 µM |
| O=C1c2cc(Br)ccc2-c2ccc3c4ccc5c6c(ccc(c7ccc1c2c73)c64)C(=O)c1cc(Br)ccc1-5 |  | > 100 µM |
| NS(=O)(=O)c1ccc(N(/C=C/C(=O)C(F)(F)F)CC(=O)c2ccc(F)cc2)cc1 | 27 µM | 76.7 µM |
| C=C1CC[C@](C)(O)[C@@]2(C)CC[C@H]3C(=C(C)C)C(=O)C[C@]3(C)C[C@H]12 |  | > 50 µM |
| Cc1cn2cc(-c3cccs3)nc2s1 |  | > 100 µM |
| Cc1ccc(S(=O)(=O)NNC(=O)Nc2cccc(C(F)(F)F)c2)cc1 |  | > 100 µM |
| CN1CCN(c2cc3[nH]c4cc(O)cc(O)c4c(=O)c3cc2N)CC1 |  | 74.5 µM |
| NS(=O)(=O)c1ccc(NC(=S)NC(=O)Nc2ccc(Cl)c(Cl)c2)cc1 |  | 38.8 µM |
| CC(=O)OC(C)(C)C1CC[C@]2(C)/C=C/C(C)C[C@@H](O)/C=C(\C)CC(O)C12 (stereo partly drawn) |  | > 100 µM |
| CC1=C(CCCOC(=O)[C@H](N)CC(C)C)C2=C(C)C3(CC3)[C@@](C)(O)C(=O)C2=C1 | 2.07 µM | 7.06 µM |
| COc1ccc2c(-c3csc(-c4c[nH]c5ccc(Br)cc45)n3)c[nH]c2c1 |  | > 100 µM |
| COc1cc([C@@H]2c3cc4c(cc3[C@H](OC3OC5COC(c6ccco6)OC5C(O)C3O)C3COC(=O)[C@@H]32)OCO4)cc(OC)c1OC (stereo partly drawn) |  | > 100 µM |
| COC(=O)C(Cc1ccccc1)NC(=O)CSc1nnc(COc2ccc(Cl)cc2)n1-c1ccccc1 (stereo not drawn) |  | 51.7 µM |
| CC(C)[Si](OC12CCC(CC1O)CC2CO)(C(C)C)C(C)C (stereo not drawn) |  | 25.9 µM |
